Patent publication US9803013B2, “Biological materials and uses thereof” (BioInvent International AB, priority 2005, dated 2017)

Columns and labels:
Raji = assay: Apoptosis induction by cross-linked IgG (Annexin V/PI); assay type: cell-based, human; settings: viable cells after 6 hour incubation, crosslinked, compared to control FITC-8 IgG1
Description: (§1) 2×10^5 B lymphoma cells (Raji or Ramos) or Jurkat T cells were incubated with serially diluted and detoxified scFv's in culture medium for 1 h on ice.
(§2) When whole IgGs were used for apoptosis induction, cross-linking reagent was replaced by goat Fab′2 anti-human Fc γ antibody (Jackson ImmunoResearch) with minimal cross-reactivity with non-IgG antibody isotypes (to avoid unspecific cross-linking of endogenous B lymphoma associated surface immunoglobulins) and incubated, as described above, for 6 h.
(§3) Apoptotic cells were, unless otherwise stated, detected by combined staining with Annexin V Alexa Fluor 488 (AV) and Propidium Iodide (PI) (both from Molecular Probes, Invitrogen) and subsequent flow-cytometric analysis, Cells were defined as viable (AV−/PI−), early apoptotic (AV+/PI−) or late apoptotic/necrotic (AV+/PI+). AV and PI signals were recorded in the FL1 and FL2 or FL3 channels (as indicated in the text), respectively, using a FACSCalibur instrument (BD Biosciences).
(§4) • ^aApoptosis Induction; determined by percentage of viable cells after 6 hour incubation with any of the human antibodies, crosslinked with Goat anti-Human (gamma) Fc specific antibody; −, viability not affected; +, 95-80%; ++, 79-60%; +++, 59-40% viable cells compared to control (human FITC-8 IgG1). […]
(§5) BI-505 receptor occupancy was studied following FACS analyses of tumor cells incubated with increasing concentrations of BI-505 in vitro. Briefly, following pre-blocking of tumor cell FcγR with 1 mg/ml human IgG on ice for 15 min, tumor cells were incubated with 10-fold serially diluted (10 μg/ml to 0.00001 μg/ml) AF647-BI505 and surface bound BI-505 was recorded as the mean fluorescence intensities (MFI) picked up in the FL4 channel of a FACSCalibur instrument. The experiment was repeated three times and mean MFI values were calculated and plotted as a function of antibody concentration. […] BI-505 concentration dependent PCD was calculated by plotting the percentage of maximal tumor PCD in vitro as a function of BI-505 concentration in a manner analogous to that described for BI-505 receptor occupancy. […]

Ramos = assay: as above; assay type: cell-based, human; settings: viable cells after 6 hour incubation, crosslinked, compared to control FITC-8 IgG1
Description: as §1, §2, §3, §4, §5

Daudi = assay: as above; assay type: cell-based, human; settings: viable cells after 6 hour incubation, crosslinked, compared to control FITC-8 IgG1
Description: as §1, §2, §3, §4, §5

PC-3 = assay: IgG binding to carcinoma cell line, flow cytometry MFI; design: species or system human; settings: PC-3 prostate carcinoma cells
Description: The antigen distribution of human antibody targeted antigens, mainly for B11, on different carcinoma cell lines was investigated. Cells (MCF-7 and MDA MB 435S breast carcinoma, JAR and JEG-3 chorio-carcinoma, A549 lung carcinoma, TCC-SUP urinary bladder carcinoma, MDA MB 435 melanoma, HPAC, PANC-1 and BxPC-3 pancreatic carcinoma, PC-3 and DU145 prostate carcinoma, LS174 T, CaCo2, and Lovo colorectal carcinoma, and THP-1 monocytic leukaemia cells), were washed in PBS, and resuspended at 4×10^6 cells/ml in Complete Medium (200,000 cells/50 […] sample). […] Cells were incubated with either of the antibodies for 1 hour on ice, washed by resuspension in PBS/BSA 0.5%, centrifuged at 1200 rpm for 5 min, and complete aspiration of the supernatants was undertaken. Cells were incubated with PE-conjugated Goat F(ab′)2 anti-Human IgG (Caltag Laboratories, Cat no: H10104), diluted 1/50 in PBS/BSA 0.5%, for 30 min, on ice. Following resuspension of in 300 μl PBS/BSA 0.5%, cells were analysed for IgG binding using a FACScan instrument.

B1: B1: fully human IgG1 antibody specific for HLA-DR/DP; VH and VL sequences of FIG. 9 (SEQ ID NOs. 2 and 4) (antibody, listed as Homo sapiens, V domains shown)
VH: [about 100 residues left out here]DGLLPLDYWGQGTLVTVSS
VL: QSVLTQPPSASGTPGQRVTISCSGGSSNIGGNAVNWYQQLPGTAPKLLIYENNKRPSGVPDRFSGSKSGTSASLAISGLRSEDEADYYCSSYAVSNNFEVLFGGGTKLTVLG
- Apoptosis Induction (Raji): +++ (59-40% viable cells compared to control (human FITC-8 IgG1))
- Apoptosis Induction (Ramos): + (95-80%)
- Apoptosis Induction (Daudi): + (95-80%)
- binding (PC-3): did not bind
